Results taken from publication PMC12040169 (PLOS Biology, 2025).
The other results are listed elsewhere or left out.

Test system: T1, C. trachomatis L2/434/Bu expressing GFP (CTL2-GFP)
T1 construct: L2/434/Bu GFP intracellular growth in HeLa cells
Design: species or system HeLa; C. trachomatis total inclusion area by high-content imaging, normalised to DMSO
Details: total inclusion area; 28.5 h, 10 µM; inhibitor
Summary of the method: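 Host cell viability was gauged from Hoechst-stained nuclei counts, while chlamydial growth was taken from total inclusion area and inclusion number per well. Cells were fixed and imaged by high-content microscopy once bulk GFP and resorufin fluorescence had been measured.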

SMILES	% of control remaining
O=C(NC(=S)Nc1ccc(N2CCN(Cc3ccccc3Cl)CC2)cc1)c1ccco1 [CBK266066]	86.7044
CC(=O)N1CC[C@H]2NC(=O)CNC(=O)C3(CCCC[C@H]2C1)CCN(C(=O)c1n[nH]c2c1CCC2)CC3 [CBK292012]	107.324
Cc1ccc(S(=O)(=O)Nc2ccc(C(=O)O)cc2)cc1[N+](=O)[O-] [CBK034055]	108.451
c1ccc2c(c1)OCC(COc1ccnc(N3CCCN(CCN4CCOCC4)CC3)n1)O2 (stereo not drawn) [CBK083976]	73.3508
Cc1cc(C2CCCCCN2Cc2cc(Cl)ccc2O)on1 (stereo not drawn) [CBK281948]	107.798
O=C1Nc2c(cnn2-c2ccc(F)cc2)C2=NCCN12 [CBK284351]	86.6097
Cc1cnc(CNC(=O)N(CCC#N)C2CCCCC2)cn1 [CBK156352]	105.345
CC(=O)Nc1ccc(CNc2ccc(Cl)cc2)cc1 [CBK012799]	40.9462
Cc1cc2nnc(SCC(=O)Nc3ccc4c(c3)OCO4)n2c2ccccc12 [CBK265926]	75.8014
COc1ccc(C(=O)Nc2ccc(CC(=O)O)cc2)cc1 [CBK269736]	68.0773
Nc1cc2ccccc2c(-c2ccncc2)n1 [CBK085708]	99.5002
Oc1c(CN2CCN(Cc3ccc4cccnc4c3O)CC2)ccc2cccnc12 [CBK261994]	86.04
Cc1ccc2c(CC(=O)N(C)CCN(C)C)c(C)[nH]c2c1C [CBK282157]	117.266
COc1cccc(/C=C2\SC(=S)N(CC(=O)NNC(=O)c3ccccc3O)C2=O)c1 [CBK262202]	97.467
O=C(N/N=C/c1ccc(O)cc1)c1c[nH]c2ccccc12 [CBK262193]	93.8699
Nc1nc2ccccc2n1/N=C/c1ccc([N+](=O)[O-])cc1 [CBK262239]	105.605
O=C(O)c1cccc(NC(=S)NC(=O)c2ccc(-c3ccc(Br)cc3)o2)c1 [CBK265014]	85.2909
NC(=O)C1CCN(C(=O)Cc2csc(COc3ccc(Cl)cc3)n2)CC1 [CBK304519]	73.0106
Cc1csc(Sc2cc(N3CCCC3)ncn2)n1 [CBK093745]	96.5518
CC(=O)c1cccc(NC(=O)Cn2nc(C)ccc2=O)c1 [CBK304653]	44.4709
Cc1cc(C(=O)NC(Cn2ccnc2)c2ccccc2)cc(=O)[nH]1 (stereo not drawn) [CBK306818]	70.3107
O=[N+]([O-])c1ccccc1S(=O)(=O)N1CCN(c2ccnc3cc(Cl)ccc23)CC1 [CBK267271]	90.6782
COc1ccccc1NC(=O)N1CCC2(CC1)NC(=O)Cc1cc3ccccc3cc12 [CBK047284]	88.1687
CC(C)(Oc1ccc(Cl)cc1)C(=O)NCCc1ccc(S(N)(=O)=O)cc1 [CBK265628]	102.631
O=C(NCCc1c[nH]c2ccccc12)C(=O)Nc1ccncc1 [CBK287754]	100.561
Cc1nn(C)c(C)c1CCC(=O)OCc1cc(=O)n2ccccc2n1 [CBK305690]	43.2069

SMILES	% of control remaining
CN1CCN(S(=O)(=O)c2ccc3c(c2)oc(=O)c2cc(S(=O)(=O)N4CCN(C)CC4)ccc23)CC1 [CBK267206]	98.4493
Cc1cccc(OC(C)C(=O)Nc2ccccc2C(=O)N2CCCCC2)c1 (stereo not drawn) [CBK269960]	98.4238
CC1CN(CCOc2ccccc2C=O)CC(C)O1 (stereo not drawn) [CBK269687C]	87.84
O=C(CCNS(=O)(=O)c1ccc(Cl)cc1)N1CCN(Cc2ccccc2)CC1 [CBK269405]	76.2203
Cc1cc(C)n(Cc2cc(C(=O)NCC(C)Oc3cccnc3)n[nH]2)n1 (stereo not drawn) [CBK307609]	64.7878
Cc1n[nH]c(C)c1CNC(=O)CCc1ccc(Cl)cc1 [CBK283185]	101.024
O=C(O)c1cccnc1SC1CC(=O)N(c2ccc([N+](=O)[O-])cc2)C1=O (stereo not drawn) [CBK263079]	94.8664
Fc1ccc(CNc2c(-c3ccco3)nc3cnccn23)cc1 [CBK283694]	127.003
O=C(O)[C@@H]1CCCN1C(=O)CCn1nnc2ccccc2c1=O [CBK286765]	87.9534
Cn1nnnc1SCC(=O)Nc1cc(F)ccc1F [CBK057872]	98.514
CCCC(=O)c1ccc(S(=O)(=O)N2CCN(Cc3c[nH]nc3-c3cccs3)CC2)cc1 [CBK063160]	85.0496
CCCCC(C(=O)O)N1C(=O)c2ccccc2C1=O (stereo not drawn) [CBK287153]	94.0534
CC(C)(C)c1nc(NS(=O)(=O)c2ccc(Cl)cc2)sc1Br [CBK014258]	91.7368
Cc1cc(NC(=O)c2ccc(N3C(=O)CCC3=O)cc2)nc2c1c(=O)oc1ccccc12 [CBK291205]	133.808
Cc1nc2c(cc(OCC(O)COc3ccc(C#N)cc3)c3ccsc32)s1 (stereo not drawn) [CBK296632]	89.4481
c1ccc2c(CCN3CCC(Oc4cncc(OCCN5CCOCC5)n4)C3)c[nH]c2c1 (stereo not drawn) [CBK084500]	78.2949
O=S(=O)(NCCn1cccc1)c1ccc2ccccc2c1 [CBK270211]	91.3597
COc1ccc(CC(=O)N2CCCCC2c2ccc(Cc3cccc(F)c3)nc2)cc1 (stereo not drawn) [CBK286493]	90.8791
CCn1cc(CN(CC(C)C)C(=O)c2ccccc2C#N)cn1 [CBK306729]	106.212
CC(C)(C)OC(=O)N(CCCN1CCN(c2ccc(F)cc2)CC1)c1ccccc1 [CBK016723]	42.6096
O=C1CSC2(C(=O)Nc3ccccc32)N1c1cccc(F)c1 (stereo not drawn) [CBK093488]	76.6656
O=C(N/N=C/c1cc(O)c(Br)cc1Br)c1ccncc1 [CBK262297]	99.1835
COc1ccc2[nH]c3c(c2c1)CCOC31CCN(C(=O)N[C@@H](C)c2ccccc2)CC1 [CBK047114]	105.752
CC(O)CNCc1ccc(OCC(=O)NC(C)(C)C)cc1 (stereo not drawn) [CBK270232C]	100.08
CN(C)c1ncc(-c2cccc(Cl)c2)c(C2CCCN2C(=O)CC2CCCC2)n1 (stereo not drawn) [CBK286253]	46.8338
